Read counts are not given, so values of variants with three or more changes are uncertain.

B1: CPEB3 Ribozyme (parent)
chain: UAACAGGGGGCCACAGCAGAAGCGUUCACGUCGCAGCCCCUGUCAGAUUCUGGUGAAUCUGCGAAUUCUGCUGUAUAUCUC

In the data set the parent is B1. Nature of the data set: self-cleavage, relative activity (ratio to wild type); higher = more cleavage; in vitro, sequencing. In outline:
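CPEB3 self-cleaving ribozyme mutant libraries were made by rounds of error-prone PCR, barcoded, and transcribed in vitro with T7 RNA polymerase for 5 hours at 37°C. Cleavage occurred during transcription and a 15 min DNase I step before EDTA stop. RNAs were reverse transcribed with template switching and Illumina-sequenced, with DNA sequencing mapping barcodes to variants. Relative activity is the variant's cleaved/total read fraction divided by wild type's (minimum 5 reads), averaged across three batches.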
Turning to C4U G33A A47U A65G U69A, the self-cleavage came out at 0.15.

On to A5G A15U U41A U69A, for which the self-cleavage came to 0.07. A5C U54G U74A: the self-cleavage came out at 0.95. In the case of A5G A18U C39A U80C, the self-cleavage was 0.52. Regarding A5C U41C A47G U49C C59U U72C, the self-cleavage was 0.35.

In the case of A5G A18C A77G, the self-cleavage is 0.23.

A5G A13C A15G: the self-cleavage turned out to be 0.71. The result for A5C A13G G19U reads 0.1. The result for A5C A18G U54C reads 0.28. The result for A5C U31A U72A reads 0.13; that for A5G A15G A21G U76G, 0.39. Regarding A5G A18U C59A, the self-cleavage turned out to be 0.41. Then A5C A20G U25C U26C A57U U72C, with 0.48. Then A5G A13U U72C, with 0.69; and A5C A15G G24U U25C A57G, with 0.11. Then C4U U41C A47U A57G, with 0.19; and A5G A18C G53A, with 0.45; and A5G A13G A18U G33A A65G, with 0.16.

As for C4U U31A U43C U51C, the self-cleavage turned out to be 0.3. The result for A5C U66A U78C reads 0.27; that for A5G A18U A47G A57G, 0.52. Then A5G A15C A45U U66C U74A, with 0.12; and A5G A18U U76A, with 0.36; and A5G A13U C23A A57G U69C C79A, with 0.06. Then A5C C12A C71U G73A, with 1.23. A5C A18G U49G: the self-cleavage came out at 0.64. As for A5G A18U U80A, the self-cleavage is 0.49.

With A5C A18G U67C, the self-cleavage turned out to be 0.12. Turning to A5G A13G U26C, the self-cleavage was 0.15. Then A5G A15G C39U A56G, with 0.27; and A5G A15C A21G U67C, with 0.08. In the case of A5C G10A A28G U76A, the self-cleavage worked out at 0.45. Then A5G A13U U69C, with 0.3. The result for A5C U41A A75U reads 0.17; that for A5G A13U A20G U25C U31C A45G, 0.25. Turning to A5G A15U A75C U80C, the self-cleavage amounted to 0.75.

For the variant A5C A57G U78C, the self-cleavage is 0.72. Then C4U U25C U26A U58C U72A U76C, with 0.16.

For the variant A5C U25A G30A, the self-cleavage stood at 0.44. In the case of A5G A15U U43C U78C, the self-cleavage came out at 0.5.

Take A5G A13U A35G A57G U67A: the self-cleavage turned out to be 1.05. The result for A5G A18G U26G A45U A47G U58C A77C reads 0.25. Then A5C U25C A28G A65G A75U, with 0.06; and A5G A20G A28C U51A U54C U80A, with 0.59; and A5G A18G A35U U80A, with 0.17. Turning to A5G A13G U48C U78C, the self-cleavage was determined as 0.56.

With A5G A15G U67C U69G, the self-cleavage was determined as 0.29.

In the case of A5G A15G U67C U69A, the self-cleavage stood at 0.25.

For A5G A18U G24A C40U U41C U51A U67C, the self-cleavage came out at 0.07. Then C4U U26A U58C U72A U76C, with 0.42; and A5G A18G U26A U43A A57G C68U, with 0.1. Then A5G A15U A35G C50U C71U, with 0.65; and A5G A13G U43C A65G, with 0.13; and A5C G24A U31C G42A A57U U66C, with 0.1. Then A5C G8A A21G C29U, with 0.03; and A5G A15U C44A A75U, with 0.24. Take A5C A65U U78C: the self-cleavage was 0.21.

As for A5G A15G A20U C32U, the self-cleavage was found to be 0.17. The result for C4U G30A U58C U78C reads 0.07. The result for A5G A15C A18U U41C A56U reads 0.09; that for A5G A13G C40A U66C U69A, 0.14; that for A5G A18G A35G A45U U48A U69A U78C, 0.27. Then A5G A13G G24A U51A G52C, with 0.43; and A5C A64G U69G, with 0.28. On to A5C U51A U66C, for which the self-cleavage was 0.49.

In the case of A5G A13U A45G C59U U72C U80C, the self-cleavage came out at 0.08. Regarding A5G A13U U74C U76A, the self-cleavage came out at 1.39.

C4U U54C U67G: the self-cleavage turned out to be 0.59. In the case of C4U U25C U26A A28G U48C, the self-cleavage stood at 0.35. As for C4U U43C G46U A56G U80G, the self-cleavage stood at 0.24. Then A5C A15G U41G A65G U72C U80C, with 0.53.

Regarding A5G A18G U25A A35U U78C, the self-cleavage came out at 0.33. Regarding A5G A18G U48C U72A, the self-cleavage stood at 0.1. Regarding A5C A13U U26C A28G C39A U69C, the self-cleavage amounted to 0.

A5G A15U U26C U41C U80C: the self-cleavage worked out at 0.68. The result for A5C A35C U69C reads 0.34; that for C4U U41C C44U, 0.56.

Take A5G A13G U25C G70A: the self-cleavage was determined as 0.22. Then A5G A13G A15G A28G, with 0.14; and A5G A13U G19U U25C U26C U41G, with 0.09. On to A5G A15G A28G C62U U72C, for which the self-cleavage stood at 0.27. As to C4U U43C U54C, the self-cleavage is 0.39. The result for A5C U41C U48C U72C reads 0.36; that for C4U U26A U51C U74A A77G, 1.26. The result for A5C G24A C38G U41G U51A reads 0.13; that for A5G A15G C44G C62G U66C, 0.25; that for A5G A13G A18G U54A U69C, 0.59.

Consider A5G A13U A35U A56G U66C, for which the self-cleavage was 0.06. In the case of A5G A13G G24A U43A, the self-cleavage amounted to 0.17.

Regarding A5C A35U U58C, the self-cleavage turned out to be 0.17. Then A5G A15G U41C G52A U60C, with 0.18. The result for A5G A13U A15U G24A A28C A35G reads 0.41; that for A5G A15G A28G U31A U41A A56G, 0. Take A5C U26A U60A U66A U74C U76C: the self-cleavage is 0.36.

For A5C A35U U54G, the self-cleavage was 0.49. As for A5G A15G A28U U43A A56U, the self-cleavage was 0.15. For the variant A5G A18G U26C C29U A65G, the self-cleavage worked out at 0.07. Regarding A5G A13C A15G G55A, the self-cleavage was 0.26. Then A5G A13G A28U A47G A57G A77U, with 0.09.

For A5G A15U A18U G33A U43A, the self-cleavage amounted to 0.34.

As for A5G A13U A15G G33U A35U G46U, the self-cleavage was 0.09. The result for A5C A13U U25C C40U A45U A56U U60C reads 0.05; that for A5C U26C G33A G52A U58G A65G, 0.08. Consider A5G A18U A45G U51A U54C U72A, for which the self-cleavage is 0.26. Then A5G A13U A20G A47G, with 0.37; and A5G A15U A20G A21G G73A, with 0.7; and A5G A15G A35C, with 0.24. The result for A5G A15U U54C reads 0.48; that for A5G A15U A21G A35U U41A U69A, 0.09. Then A5C A20G A21G U25C A45G U54A, with 0.21. For the variant A5G A13G U43C U72A, the self-cleavage came out at 0.54. The result for A5C A13G A35G U69G A75G reads 0.12; that for A5C A15G A18G, 0.91. Turning to A5G A13G A35U A47U U49A U60C A64G, the self-cleavage amounted to 0.06. The result for A5C U26C C44A U51C reads 0.09; that for A5G A15U U43A, 0.53. Then A5G A15U U43C, with 0.76; and A5G A13U U41C U49C, with 0.21; and C4U U51C U54A A56U A57U A77U, with 0.85. With A5G A15G A75G, the self-cleavage amounted to 0.53.

With A5G A15G A75U, the self-cleavage amounted to 0.7.

For A5G A13U C32G C37A C40U, the self-cleavage came out at 0.09. The result for A5G A15G U49C U80C reads 0.48.

Turning to A5G A13G A21G U51G, the self-cleavage was determined as 0.24. The result for A5C G16C G33U U41C reads 0.07. The result for A5G A18G A20G A35G U49A A56U U60C reads 0.12; that for A5C A35U A47G, 0.39. Turning to A5G A18G A35G A65G U69G, the self-cleavage turned out to be 0.28. The result for A5G A13G A28U U51A U69G U80C reads 0.16; that for A5C U54C U72C, 1.2. Then A5C C38U U67C A75U C81U, with 0.08; and A5G A13U C23U, with 0.45; and A5G A18U G30U A35G U41C U49C U72C, with 0.04. Turning to A5C U48C G53A U66C U67G U72C, the self-cleavage was 0.15. In the case of A5C A18G A75U, the self-cleavage worked out at 0.35. The result for C4U G53U U60C reads 0.53. As for A5G A15G A28G A45G U54G, the self-cleavage was 0.4.

Consider A5C C11U G16A A28G U54G A75G, for which the self-cleavage was determined as 0.04.

As for C4U U31A A65G, the self-cleavage amounted to 0.62. Then A5G A15U A18U A28U A47C A77U, with 0.54; and A5G A18C A28G U67A, with 0.06; and A5G A15G U51A A57G U58C, with 0.17. Turning to C4U U48C U54C, the self-cleavage came to 0.3. Then A5C C34G A64U, with 0.33; and C4U U72C U78A C81U, with 1.32; and A5G A13G U72A U80C, with 0.48. Then A5C A13G U67A U78C, with 0.42; and C4U U25C A45G U49C, with 0.24; and A5C A18G A45G A57G, with 0.55. Regarding A5C U49C U51C C62U U76A, the self-cleavage is 0.29.

As to A5C C11G A20G A64U, the self-cleavage turned out to be 0.08. Then C4U U31G A56G U58C U80C, with 0.18; and C4U U51C U76A U80C, with 1.25. The result for A5G A15U A35G A65G G70C U80A reads 0.34. The result for A5G A18U A35G U51C U72A reads 0.21. For the variant A5G A15G C37U U41A, the self-cleavage was found to be 0.44. In the case of A5G A13G U41A U51C A64U, the self-cleavage turned out to be 0.12.

With A5C G30A C40A U43C, the self-cleavage is 0.34. Then A5G A18G A21G A45U U66C U69A, with 0.04; and A5G A13G U25C U31C, with 0.14; and A5G A18U U43A U67G, with 0.07. The result for A5G A13G A21G U26C A45G A64U U76A reads 0. Then A5C A35G A45G U48C U60G U67C, with 0.5; and A5C G53A U58C U74C, with 1.05. With A5G A18G A20G A28G U43A A64U U67C, the self-cleavage was 0. For the variant A5C A18G U54C A56U, the self-cleavage stood at 0.5. As to A5C U41C U49C, the self-cleavage is 0.54.

Values taken from the RNAGym collection of RNA variant scans (doi:10.1093/nar/gkz1192).
